Laboratory results taken from the supplement of paper PMC8728848.
The list shows a part of the results.

Assays:
Assay in all cases: glycan array binding signal (z-score within array); higher = stronger binding
Settings in all cases: glycan notation: IUPAC condensed, linker removed
[1] = target: Gal(a1-3)Gal(b1-4)GlcNAc(b1-2)Man
Outline: (§1)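 Glycan array data were curated from 3228 arrays in the Consortium for Functional Glycomics database and kept only where the protein sequence was available. Glycan names were converted to IUPAC-condensed notation, and columns mapping to the same glycan were averaged. The binding signal is a within-array Z-score, averaged across arrays of the same protein sequence at different concentrations or buffers and across linkers. Negative Z-scores can be read as non-binding.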

[2] = target: Gal(a1-3)Gal(b1-4)GlcNAc(b1-2)Man(a1-3)[Gal(a1-3)Gal(b1-4)GlcNAc(b1-2)Man(a1-6)]Man(b1-4)GlcNAc(b1-4)GlcNAc
Outline: as §1

[3] = target: Gal(a1-3)Gal(b1-4)GlcNAc(b1-3)GalNAc
Outline: as §1

[4] = target: Gal(a1-3)Gal(b1-4)GlcNAc(b1-6)GalNAc
Outline: as §1

[5] = target: Gal(a1-3)Gal(b1-4)[Fuc(a1-3)]GlcNAc
Outline: as §1

[6] = target: Gal(a1-3)Gal(b1-4)[Fuc(a1-3)]GlcNAc(b1-2)Man(a1-3)[Gal(a1-3)Gal(b1-4)[Fuc(a1-3)]GlcNAc(b1-2)Man(a1-6)]Man(b1-4)GlcNAc(b1-4)GlcNAc
Outline: as §1

Gal(a1-3)GalNAc = target: Gal(a1-3)GalNAc
Outline: as §1

[7] = target: Gal(a1-3)[Gal(a1-4)]Gal(b1-4)GlcNAc
Outline: as §1

[8] = target: Gal(a1-4)Gal(b1-3)GlcNAc(b1-2)Man(a1-3)[Gal(a1-4)Gal(b1-3)GlcNAc(b1-2)Man(a1-6)]Man(b1-4)GlcNAc(b1-4)GlcNAc
Outline: as §1

Gal(a1-4)Gal(b1-4)Glc = target: Gal(a1-4)Gal(b1-4)Glc
Outline: as §1

Gal(a1-4)Gal(b1-4)GlcNAc = target: Gal(a1-4)Gal(b1-4)GlcNAc
Outline: as §1

[9] = target: Gal(a1-4)Gal(b1-4)GlcNAc(b1-2)Man(a1-3)[Gal(a1-4)Gal(b1-4)GlcNAc(b1-2)Man(a1-6)]Man(b1-4)GlcNAc(b1-4)GlcNAc
Outline: as §1

[10] = target: Gal(a1-4)Gal(b1-4)GlcNAc(b1-3)Gal(b1-4)Glc
Outline: as §1

Gal(a1-4)GlcNAc = target: Gal(a1-4)GlcNAc
Outline: as §1

Gal(a1-6)Glc = target: Gal(a1-6)Glc
Outline: as §1

Gal(b1-2)Gal = target: Gal(b1-2)Gal
Outline: as §1

Gal(b1-3)Gal = target: Gal(b1-3)Gal
Outline: as §1

Gal(b1-3)Gal(b1-4)GlcNAc = target: Gal(b1-3)Gal(b1-4)GlcNAc
Outline: as §1

Gal(b1-3)GalNAc = target: Gal(b1-3)GalNAc
Outline: as §1

[11] = target: Gal(b1-3)GalNAc(a1-3)[Fuc(a1-2)]Gal(b1-4)Glc
Outline: as §1

[12] = target: Gal(b1-3)GalNAc(a1-3)[Fuc(a1-2)]Gal(b1-4)GlcNAc
Outline: as §1

Gal(b1-3)GalNAc(b1-3)Gal = target: Gal(b1-3)GalNAc(b1-3)Gal
Outline: as §1

[13] = target: Gal(b1-3)GalNAc(b1-3)Gal(a1-4)Gal(b1-4)Glc
Outline: as §1

[14] = target: Gal(b1-3)GalNAc(b1-4)Gal(b1-4)Glc
Outline: as §1

[15] = target: Gal(b1-3)GalNAc(b1-4)[Neu5Ac(a2-3)]Gal(b1-4)Glc
Outline: as §1

Gal(b1-3)GlcNAc = target: Gal(b1-3)GlcNAc
Outline: as §1

[16] = target: Gal(b1-3)GlcNAc(a1-3)Gal(b1-4)GlcNAc
Outline: as §1

[17] = target: Gal(b1-3)GlcNAc(a1-6)Gal(b1-4)GlcNAc
Outline: as §1

Gal(b1-3)GlcNAc(b1-2)Man = target: Gal(b1-3)GlcNAc(b1-2)Man
Outline: as §1

[18] = target: Gal(b1-3)GlcNAc(b1-2)Man(a1-3)[Gal(b1-3)GlcNAc(b1-2)Man(a1-6)]Man(b1-4)GlcNAc(b1-4)GlcNAc
Outline: as §1

[19] = target: Gal(b1-3)GlcNAc(b1-2)Man(a1-3)[Gal(b1-3)GlcNAc(b1-2)Man(a1-6)]Man(b1-4)GlcNAc(b1-4)[Fuc(a1-6)]GlcNAc
Outline: as §1

[20] = target: Gal(b1-3)GlcNAc(b1-2)Man(a1-3)[GlcNAc(b1-4)][Gal(b1-3)GlcNAc(b1-2)Man(a1-6)]Man(b1-4)GlcNAc(b1-4)GlcNAc
Outline: as §1

[21] = target: Gal(b1-3)GlcNAc(b1-2)[Gal(b1-3)GlcNAc(b1-6)]Man(a1-6)[Gal(b1-3)GlcNAc(b1-2)Man(a1-3)]Man(b1-4)GlcNAc(b1-4)GlcNAc
Outline: as §1

[22] = target: Gal(b1-3)GlcNAc(b1-3)Gal(b1-3)GlcNAc
Outline: as §1

[23] = target: Gal(b1-3)GlcNAc(b1-3)Gal(b1-4)Glc
Outline: as §1

[24] = target: Gal(b1-3)GlcNAc(b1-3)Gal(b1-4)GlcNAc
Outline: as §1

[25] = target: Gal(b1-3)GlcNAc(b1-3)Gal(b1-4)GlcNAc(b1-2)Man(a1-3)[Gal(b1-3)GlcNAc(b1-3)Gal(b1-4)GlcNAc(b1-2)Man(a1-6)]Man(b1-4)GlcNAc(b1-4)GlcNAc
Outline: as §1

B1: Cohesin-mDC-ASGPR (Macaca mulatta) (protein)
chain: LDITSHHHHHHDDLDAVRIKVDTVNAKPGDTVRIPVRFSGIPSKGIANCDFVYSYDPNVLEIIEIEPGDIIVDPNPDKSFDTAVYPDRKIIVFLFAEDSGTGAYAITKDGVFATIVAKVKEGAPNGLSVIKFVEVGGFANNDLVEQKTQFFDGGVNVGDTTEPATPTTPVTTPTTTDDLDAASSQNSKFQRDLVTLRTDFSNFTSNTVAEIQALTSQGSSVEEMIASLKAEVEVIKQEQQAVHSEMLLRVQRLMQDLNKLTCQVATLKNNASTERTCCPVNWVEHQDSCYWFSRSGMPWAEAEKHCQLENAHLVVINSREEQNFVQEHLSFAYTWMGLSDREGAWKWVDGTDYETGFQNWKPGQPDDWQGHGLGGGEDCAHFHPDGRWNDDVCQRPYYWVCEAGLTQASQESH
glycan array binding signal (z-score) [1]: -0.326
glycan array binding signal (z-score) [2]: -0.388
glycan array binding signal (z-score) [3]: -0.414
glycan array binding signal (z-score) [4]: 2.57
glycan array binding signal (z-score) [5]: -0.372
glycan array binding signal (z-score) [6]: -0.318
glycan array binding signal (z-score) (Gal(a1-3)GalNAc): -0.303
glycan array binding signal (z-score) [7]: -0.433
glycan array binding signal (z-score) [8]: -0.414
glycan array binding signal (z-score) (Gal(a1-4)Gal(b1-4)Glc): -0.272
glycan array binding signal (z-score) (Gal(a1-4)Gal(b1-4)GlcNAc): -0.412
glycan array binding signal (z-score) [9]: -0.413
glycan array binding signal (z-score) [10]: -0.401
glycan array binding signal (z-score) (Gal(a1-4)GlcNAc): -0.384
glycan array binding signal (z-score) (Gal(a1-6)Glc): -0.379
glycan array binding signal (z-score) (Gal(b1-2)Gal): -0.312
glycan array binding signal (z-score) (Gal(b1-3)Gal): -0.401
glycan array binding signal (z-score) (Gal(b1-3)Gal(b1-4)GlcNAc): -0.416
glycan array binding signal (z-score) (Gal(b1-3)GalNAc): -0.391
glycan array binding signal (z-score) [11]: -0.391
glycan array binding signal (z-score) [12]: -0.414
glycan array binding signal (z-score) (Gal(b1-3)GalNAc(b1-3)Gal): -0.244
glycan array binding signal (z-score) [13]: 2.85
glycan array binding signal (z-score) [14]: -0.274
glycan array binding signal (z-score) [15]: 2.25
glycan array binding signal (z-score) (Gal(b1-3)GlcNAc): -0.378
glycan array binding signal (z-score) [16]: -0.425
glycan array binding signal (z-score) [17]: -0.381
glycan array binding signal (z-score) (Gal(b1-3)GlcNAc(b1-2)Man): -0.313
glycan array binding signal (z-score) [18]: -0.431
glycan array binding signal (z-score) [19]: -0.402
glycan array binding signal (z-score) [20]: -0.4
glycan array binding signal (z-score) [21]: -0.399
glycan array binding signal (z-score) [22]: -0.417
glycan array binding signal (z-score) [23]: -0.403
glycan array binding signal (z-score) [24]: -0.422
glycan array binding signal (z-score) [25]: -0.218
